Data: PubChem BioAssay (NCATS)
The inconclusive results got no clear call from the source; some entries with a clear call stand among them for comparison. Potencies of inconclusive entries are doubtful fits and often do not repeat. Activity calls are given as the source filed them. The call rests on the fitted dose curve; in most records, active means well fitted inhibition curve with a large enough effect; inconclusive means small, poorly fitted or top-dose-only effect; inactive means flat fitted curve, though single readings scatter.

The compounds below were run on Zika virus NS2B-NS3 protease (unlinked complex) (assay: Confirmatory screen GU AMC qHTS for Zika virus inhibitors (AID 1347153; further: nearly all actives have a fitted effect of over 70% in size;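 on activity, negative = inhibition: percent inhibition with 0% = no inhibitor control and 100% = no enzyme control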)). Conditions: Recombinant NS2B-NS3 protease, AMC substrate fluorescence; series mostly up to 111 µM.
From the text: Assay Submitters (PI): Avindra Nath, Ph.D., National Institute of Neurological Disorders and Stroke (NINDS), Bethesda, MD Radhakrishnan Padmanabhan, Ph.D., Georgetown University (GU), Washington D.C. Zika Virus causes congenital defects, including microcephaly and is associated with Guillain-Barre syndrome, eningoencephalitis and myelitis in infected adult. […] Using a target-based approach, we hope to establish a screening paradigm to uncover novel, cell-active NS2B-NS3 protease (Zika Virus) specific inhibitors from NCATS' collection of small molecules using qHTS. […] Active compounds in the primary screen are re-acquired and re-screened to confirm NS2B-NS3 protease inhibition. Early Translation Branch (ETB) National Center for Advancing Translational Sciences (NCATS), Rockville, MD National Institute of Health (NIH), Bethesda, Maryland
Materials: Padmanabhan lab provided the NS2B hydrophilic domain and NS3 protease domain in a noncovalent complex used for the unlinked assay. Control compound aprotinin is obtained from Thermo Scientific (#78432; Waltham, Massachusetts). NS2B-NS3 AMC substrate (Bz-Nle-Lys-Arg-Arg-AMC; Nle-KRR-AMC) purchased from Bachem (#I-1995; Torrance, CA). Ac-VKTGKR-AMC purchased from Genscript or Bachem, Ac-FAAGKR-AMC purchased from Genscript, Ac-GLVKRR-AMC purchased from Genscript, Ac-LKKR-AMC purchased from Genscript. GU AMC unlinked NS2B-NS3 protease qHTS protocol: Briefly, 3 microL of Zika virus unlinked NS2B-NS3 protease (25 nM for linked final concentration), in assay buffer (10 mM Tris-HCl pH 8.0 with 0.01% Tween 20) was dispensed into a 1,536-well solid-bottom black plate (Greiner Bio One, Monroe, NC). Twenty-three nL of compounds (final concentration range 7.28 nM to 114 microM) or control Aprotinin (final concentration range 3.47 nM to 114 microM) were transferred via Wako Pin-tool (Wako Automation, Richmond, VA). Samples were incubated (room temperature, protected from light) for 15 minutes followed by a 1 microL AMC substrate addition of (final concentration of 10 microM; Km = 18.3 µM). Plates were then read immediately on a ViewLux High-throughput CCD imager (PerkinElmer, Waltham, MA) equipped with standard UV fluorescence optics (340(30) nm excitation, 450(20) nm emission) then incubated (room temperature, protected from light) for 15 minutes (~20% conversion). The change in fluorescence intensity over the 15-minute reaction period was normalized against no-inhibitor and no-enzyme controls and the resulting percent inhibition data were fitted to a 4-parameter Hill equation. Aprotinin was used as the intraplate control.
Potency means the concentration at half of the fitted maximal effect; tags describe the fitted curve by direction and shape.

| Structure (SMILES) | Potency | activity, negative = inhibition |
| --- | --- | --- |
| O=S(=O)(N[C@H]1CO[C@H]2[C@@H]1OC[C@@H]2Nc1nccc(-c2ccc3c(c2)OCO3)n1)c1ccc2ccccc2c1 | inconclusive: 55.5 µM [inhibitor, partial curve, poor fit] |  |
| O=C(O)c1ccc(-c2cc(C(F)(F)F)ccc2Cl)cc1 | inconclusive: 90.3 µM [inhibitor, partial curve, poor fit] |  |
| O=C(O)c1ccc(-c2ccc(C(F)(F)F)cc2)cc1 | inactive |  |
| Cc1cc(C)cc(C(=O)N(C)[C@H](Cc2ccc(-c3ccccc3)cc2)C(=O)N[C@@H](Cc2c[nH]c3ccccc23)C(=O)O)c1 | active: 19.2 µM |  |
| COc1ccc(-c2nc(C(=O)N3CCN(C)CC3)sc2-c2ccc(OC)cc2)cc1 | inconclusive: 24.1 µM [inhibitor, partial curve] |  |
| C[C@@H](NC(=O)c1ccc(Cl)cc1)c1c(-c2ccc(F)cc2)noc1C(=O)O | inconclusive: 71.7 µM [inhibitor, partial curve, poor fit] |  |
| N#Cc1ccccc1OCC1CN(Cc2cccc(C(F)(F)F)c2)C(=O)c2c(ccnc2-c2ccc(OCC(=O)O)cc2)O1 (stereo not given) | inconclusive: 62.2 µM [inhibitor, partial curve, poor fit] |  |
| Cn1cc(C(F)(F)F)nc1-c1ccc(OCC(O)CNCCOc2ccc(O)c(C(N)=O)c2)cc1 (stereo not given) | inconclusive: 27.1 µM [inhibitor, partial curve, poor fit] |  |
| CC(C)C(=O)c1cn(CC(=O)COc2ccc(Oc3ccccc3)cc2)c2ccc(C(=O)O)cc12 | active: 44.1 µM |  |
| O=C(Nc1ccc(Oc2ccccc2)cc1)O[C@@H]1CO[C@H]2[C@@H]1OC[C@@H]2NS(=O)(=O)c1ccc2ccccc2c1 | inactive |  |
| O=C(Nc1cccc2ccccc12)O[C@@H]1CO[C@H]2[C@@H]1OC[C@@H]2NS(=O)(=O)c1ccc2ccccc2c1 | inactive |  |
| O=C(O)COc1ccc(-c2nccc3c2C(=O)N(Cc2cccc(C(F)(F)F)c2)CC(COc2ccccc2)O3)cc1 (stereo not given) | inconclusive: 55.5 µM [inhibitor, partial curve] |  |
| CC(C)(C)c1ccc(NC(=O)O[C@@H]2CO[C@H]3[C@@H]2OC[C@@H]3Nc2nccc(-c3ccc(-c4ccccc4)cc3)n2)cc1 | inactive |  |
| O=C(Nc1ccc(Oc2ccccc2)cc1)O[C@@H]1CO[C@H]2[C@@H]1OC[C@@H]2n1nnnc1-c1ccc(-c2ccccc2)cc1 | inactive |  |
| Cn1c(=O)c2[nH]c(-c3ccccc3)nc2n(C)c1=O | inconclusive: 21.5 µM [inhibitor, partial curve, poor fit] |  |
| CC(C)CN1CC(CNC(=O)c2ccc(Oc3ccccc3)cc2)Oc2ccnc(-c3ccc(OCC(=O)O)cc3)c2C1=O (stereo not given) | inconclusive: 55.5 µM [inhibitor, partial curve] |  |
| CC1(C(=O)O)NCCc2cc(O)c(O)cc21 (stereo not given) | inconclusive: 27.1 µM [inhibitor, partial curve, poor fit] |  |
| CC(C)CN1CC(COc2ccc3ccccc3c2)Oc2ccnc(-c3ccc(OCC(=O)O)cc3)c2C1=O (stereo not given) | inconclusive: 49.4 µM [inhibitor, partial curve] |  |
| O=C(O)c1ccccc1Nc1cccc(OCc2ccc3ccccc3n2)c1 | inconclusive: 24.1 µM [inhibitor, partial curve] |  |
| O=C(O)c1c(Sc2ccccc2)c2cc(Cl)ccc2n1Cc1ccc(Cl)cc1 | active: 19.2 µM |  |

| Structure (SMILES) | Potency | activity, negative = inhibition |
| --- | --- | --- |
| COC(=O)[C@H](Cc1ccc(OC)cc1)NC(=O)[C@H]1CN(S(=O)(=O)c2ccccc2)CCN1S(=O)(=O)c1ccccc1 | inactive |  |
| C/C(=C\c1ccc(C(=O)O)cc1)c1ccc2c(c1)C(C)(C)CCC2(C)C | active: 24.1 µM |  |
| N#C/C(=C\c1ccc(Br)cc1)c1nc(-c2cc3cc(Br)ccc3oc2=O)cs1 | inactive |  |
| O=c1[nH]c(=S)[nH]c(-c2ccccc2)c1Cc1c(O)ccc2ccccc12 | inconclusive: 24.1 µM [inhibitor, single point] |  |
| C/C(=C\CC/C(C)=C/CC[C@]1(C)CCc2cc(O)cc(C)c2O1)CC/C=C(\C)C(=O)O | inconclusive: 24.2 µM [inhibitor, partial curve] |  |
| N#Cc1ccc(OCC2CN(Cc3cccc(C(F)(F)F)c3)C(=O)c3c(ccnc3-c3ccc(OCC(=O)O)cc3)O2)cc1 (stereo not given) | inconclusive: 49.4 µM [inhibitor, partial curve, poor fit] |  |
| O=C(NCc1ccccc1Cl)c1ccc2c(O)c(S(=O)(=O)c3ccccc3)c(=O)[nH]c2c1 | inconclusive: 55.5 µM [inhibitor, partial curve] |  |
| COc1ccc(-c2nc3cc(F)ccc3s2)cc1OC |  | inactive: -4.14% [at 5.51 µM] |
| O=C(O)COc1ccc(-c2nccc3c2C(=O)N(Cc2cccc(C(F)(F)F)c2)CC(COc2ccc(OC(F)(F)F)cc2)O3)cc1 (stereo not given) | active: 22.1 µM |  |
| N#Cc1ccccc1S(=O)(=O)N[C@H]1CO[C@H]2[C@@H]1OC[C@H]2OC(=O)Nc1ccc(Oc2ccccc2)cc1 | inactive |  |
| Cc1ccc2c(=O)c3ccccc3n(CCCN)c2c1C | inactive |  |
| CC(Oc1ccccc1)C(=O)Nc1ccccc1C(=O)OCc1cc(=O)n2nc(C3CC3)sc2n1 (stereo not given) | inconclusive: 49.4 µM [inhibitor, partial curve] |  |
| COc1cccc(-n2nc(C(=O)O)cc2-c2ccc(C3CCCCC3)c(Cl)c2)c1 | active: 12.4 µM |  |
| O=C(Nc1cccc2ccccc12)O[C@@H]1CO[C@H]2[C@@H]1OC[C@@H]2NS(=O)(=O)c1cccc2cccnc12 | inactive |  |
| COc1ccc(Br)cc1S(=O)(=O)NC(=O)/C=C/c1ccccc1Cc1ccc2ccccc2c1 | inconclusive: 13.6 µM [inhibitor, partial curve, poor fit] |  |
| COc1ccc(-c2ccnc(N[C@H]3CO[C@H]4[C@@H]3OC[C@@H]4NS(=O)(=O)c3ccc4ccccc4c3)n2)cc1 | inactive |  |
| CCCC[C@@]1(C2CCCC2)Cc2cc(OCC(=O)O)c(Cl)c(Cl)c2C1=O | inconclusive: 24.1 µM [inhibitor, partial curve] |  |
| Cc1cccc(C(=O)NCN2CCN(c3ccccc3C#N)CC2)c1 | inactive |  |
| O=C(O)c1cccc(-c2ccc(OC(F)(F)F)cc2)c1 | inconclusive: 80.4 µM [inhibitor, partial curve, poor fit] |  |
| CN(Cc1cnc2nc(N)nc(N)c2n1)c1ccc(C(=O)NC(CCC(=O)O)C(=O)O)cc1 (stereo not given) | inactive |  |
